From patent EP0163537A1, “1-Propanone derivatives and pharmaceutical compositions containing same” (priority 1984, dated 1985)
Counter-ions that a name gives are not always drawn. At least one read-out could not be matched to a standard name with certainty.

How the values were obtained:
Male mice of ddY strain [1] = assay: Test 2 Anti-tremorine activity (inhibition of tremorine-induced tremor); format: in vivo; conditions: 50 mg/kg po
Male mice of ddY strain [2] = assay: Test 3 Muscle relaxant activity (traction test, method of Courvoisier et al.); format: in vivo; conditions: 15 minutes after administration, groups of ten
[3] = Table-3a, After 30 min. from tremorine 20 mg/kg sc, 8 animals used
[4] = Table-3a, After 60 min. from tremorine 20 mg/kg sc, 8 animals used
[5] = Table-3d, After 30 min., 10 animals used
[6] = Table-3d, After 60 min., 10 animals used

Structure (SMILES)	Number of animals exhibiting no tremor (Male mice of ddY strain [1]; [3])	Number of animals exhibiting no tremor (Male mice of ddY strain [1]; [4])	Muscle relaxation rate (%) (Male mice of ddY strain [2]; Table-4a, 50 mg/kg ip)	Muscle relaxation rate (%) (Male mice of ddY strain [2]; Table-4d, 75 mg/kg ip)	other results
CCc1ccc(C(=O)C(C)CN2CCCCC2)cc1 (stereo not shown) [Eperisone HCl, Eperisone, reference compound]	7	0	20	20	Number of animals exhibiting no tremor (Male mice of ddY strain [1]; Table-3b, After 30 min., 10 animals used): 8; Number of animals exhibiting no tremor (Male mice of ddY strain [1]; Table-3b, After 60 min., 10 animals used): 1; Number of animals exhibiting no tremor (Male mice of ddY strain [1]; [5]): 8; Number of animals exhibiting no tremor (Male mice of ddY strain [1]; [6]): 2
CC(CN1CCCC1)C(=O)c1ccc(C2CC2)cc1.Cl (stereo not shown) [Example 8, 1-(4-Cyclopropylphenyl)-2-methyl-3-(1-pyrrolidinyl)-1-propanone hydrochloride]	8	7	70		
CC(CN1CCCCCC1)C(=O)c1ccc(C2CC2)cc1.Cl (stereo not shown) [Example 9, 1-(4-Cyclopropylphenyl)-2-methyl-3-(hexahydro-1H-azepin-1-yl)-1-propanone hydrochloride]	8	7	70		
CC(CN1CCCCC1)C(=O)c1ccc(C2CCCC2)cc1.Cl (stereo not shown) [Example 41, 1-(4-Cyclopentylphenyl)-2-methyl-3-piperidino-1-propanone hydrochloride]	6	1			
CC(CN1CCCCC1)C(=O)c1ccc(C2CCCCC2)cc1.Cl (stereo not shown) [Example 48, 1-(4-Cyclohexylphenyl)-2-methyl-3-piperidino-1-propanone hydrochloride]	8	3			
CC(CN1CCCCC1)C(=O)c1ccc2c(c1)CCO2.Cl (stereo not shown) [Example 85, 1-(2,3-Dihydro-5-benzofuranyl)-2-methyl-3-piperidino-1-propanone hydrochloride]				80	
CC(CN1CCCCCC1)C(=O)c1ccc2c(c1)CCO2.Cl (stereo not shown) [Example 93, 1-(2,3-Dihydro-5-benzofuranyl)-2-methyl-3-(hexahydro-1H-azepin-1-yl)-1-propanone hydrochloride]				60	
CCCC(CN1CCCCC1)C(=O)c1ccc2c(c1)CCO2.Cl (stereo not shown) [Example 99, 1-(2,3-Dihydro-5-benzofuranyl)-2-n-propyl-3-piperidino-1-propanone hydrochloride]				20	Number of animals exhibiting no tremor (Male mice of ddY strain [1]; [5]): 10; Number of animals exhibiting no tremor (Male mice of ddY strain [1]; [6]): 9
Cc1ccc(C(=O)C(C)CN2CCCCC2)cc1 (stereo not shown) [Tolperisone HCl, 2-methyl-1-(4-methylphenyl)-3-(1-piperidinyl)-1-propanone, reference compound]			10	10	
